Test results taken from the supplement of paper PMC10126150.
Sequences with one replicate were seen in a single cluster, so their values are uncertain.

Tested on: ATP
Assay: switch fluorescence ratio, 500 uM ATP over buffer (Cy3 cluster intensity, sum of 5 cycles each) (fold (ratio)); higher = stronger signal-on switching upon ATP binding; sequences stand for … in TCGTCGGCAGCGTCAGATGTGTATAAGAGACAGTTTTTTTTTTTTTTTTTTTTTTTTT…TC
Conditions: aptamer strand: ATP DNA aptamer (quencher-CACCTGGGGGAGTATTGCGGAGGAAGG + anchor), 100 nM annealed; ATP concentration: 500 uM; one replicate
In short: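 The fluorescence ratio divides summed target-cycle Cy3 intensity by summed buffer-cycle Cy3 intensity for each cluster and is averaged per switch-domain sequence. Cy3-labelled switching-strand clusters on a modified Illumina MiSeq flow-cell were annealed to 100 nM quencher-labelled ATP aptamer, then imaged in selection buffer and again after 15 min with 500 uM ATP at 22 °C. Five such cycles were run, with NaOH stripping and re-annealing between them, and clusters outside 100-1000 RFU were excluded.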
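Note: ATP exposure 15 min at 22 °C before imaging.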

Q: Which switch fluorescence ratio does the source give for GGCTTTATCG here?
A: 1.03

Q: How did the switch fluorescence ratio turn out when GGCTTTGCA was run?
A: 0.94

Q: How did the switch fluorescence ratio turn out when GGGAAAATC was run?
A: 0.958

Q: For GGGAAACTCA, which switch fluorescence ratio is on record?
A: 1.29

Q: For GGGAAATG, which switch fluorescence ratio is on record?
A: 1.06

Q: With GGGAAGCGCG as the sequence, how does the switch fluorescence ratio read?
A: 0.953

Q: How did the switch fluorescence ratio turn out when GGGAAGGCTG was run?
A: 1

Q: How did the switch fluorescence ratio turn out when GGGAAGGGA was run?
A: 1.01

Q: For GGGAAGTCG, which switch fluorescence ratio is on record?
A: 1.05

Q: How did the switch fluorescence ratio turn out when GGGAAGTGCG was run?
A: 0.949

Q: GGGAAGTGGA was tested. Which switch fluorescence ratio did it give?
A: 1.05

Q: How did the switch fluorescence ratio turn out when GGGAAGTTTA was run?
A: 0.951

Q: Which switch fluorescence ratio does the source give for GGGACAAGTG here?
A: 0.974

Q: GGGACACGCA was tested. Which switch fluorescence ratio did it give?
A: 1.11

Q: For GGGACACGTA, which switch fluorescence ratio is on record?
A: 1.02

Q: Which switch fluorescence ratio does the source give for GGGACATACA here?
A: 1.23

Q: For GGGACATGTC, which switch fluorescence ratio is on record?
A: 1.01

Q: How did the switch fluorescence ratio turn out when GGGACCGCCC was run?
A: 1.35

Q: Which switch fluorescence ratio does the source give for GGGACCTGCG here?
A: 1.02

Q: For GGGACGATG, which switch fluorescence ratio is on record?
A: 0.984

Q: Which switch fluorescence ratio does the source give for GGGACGTACT here?
A: 1.53

Q: How did the switch fluorescence ratio turn out when GGGACTATAA was run?
A: 0.97

Q: How did the switch fluorescence ratio turn out when GGGACTGCAA was run?
A: 1.56

Q: With GGGACTTTTA as the sequence, how does the switch fluorescence ratio read?
A: 0.961

Q: GGGAGACACA was tested. Which switch fluorescence ratio did it give?
A: 0.976

Q: With GGGAGACGCG as the sequence, how does the switch fluorescence ratio read?
A: 1.01

Q: For GGGAGATAGT, which switch fluorescence ratio is on record?
A: 1

Q: Which switch fluorescence ratio does the source give for GGGAGATATA here?
A: 1.06

Q: GGGAGCGAGT was tested. Which switch fluorescence ratio did it give?
A: 0.962

Q: How did the switch fluorescence ratio turn out when GGGAGCGTCG was run?
A: 0.94

Q: GGGAGGTTTA was tested. Which switch fluorescence ratio did it give?
A: 1.02

Q: GGGAGTAAGA was tested. Which switch fluorescence ratio did it give?
A: 0.981

Q: For GGGAGTCGGT, which switch fluorescence ratio is on record?
A: 1.02

Q: GGGAGTGCGC was tested. Which switch fluorescence ratio did it give?
A: 0.948

Q: GGGAGTTGTT was tested. Which switch fluorescence ratio did it give?
A: 1.04

Q: For GGGATCCAGA, which switch fluorescence ratio is on record?
A: 0.968

Q: How did the switch fluorescence ratio turn out when GGGATCGGAA was run?
A: 1.03

Q: For GGGATCTCTG, which switch fluorescence ratio is on record?
A: 0.956

Q: GGGATCTGCA was tested. Which switch fluorescence ratio did it give?
A: 0.988

Q: How did the switch fluorescence ratio turn out when GGGATGAGAA was run?
A: 0.999

Q: With GGGATTAAA as the sequence, how does the switch fluorescence ratio read?
A: 0.974

Q: Which switch fluorescence ratio does the source give for GGGATTAGAG here?
A: 1.03

Q: With GGGATTGTAC as the sequence, how does the switch fluorescence ratio read?
A: 1.12

Q: How did the switch fluorescence ratio turn out when GGGCACTGTC was run?
A: 0.951

Q: Which switch fluorescence ratio does the source give for GGGCAGAAAC here?
A: 1.06

Q: With GGGCAGTCGT as the sequence, how does the switch fluorescence ratio read?
A: 0.994

Q: With GGGCATAGAG as the sequence, how does the switch fluorescence ratio read?
A: 1

Q: GGGCATCACT was tested. Which switch fluorescence ratio did it give?
A: 0.987

Q: How did the switch fluorescence ratio turn out when GGGCATGTTC was run?
A: 1.02

Q: For GGGCCAAGTG, which switch fluorescence ratio is on record?
A: 0.999

Q: For GGGCCACAGT, which switch fluorescence ratio is on record?
A: 1.01

Q: How did the switch fluorescence ratio turn out when GGGCCACGGG was run?
A: 1.02

Q: With GGGCCACTCC as the sequence, how does the switch fluorescence ratio read?
A: 1.05

Q: GGGCCCACTC was tested. Which switch fluorescence ratio did it give?
A: 1.04

Q: Which switch fluorescence ratio does the source give for GGGCCCATTT here?
A: 1.01

Q: For GGGCCGAATT, which switch fluorescence ratio is on record?
A: 1.02

Q: How did the switch fluorescence ratio turn out when GGGCCGTTAG was run?
A: 1.01

Q: How did the switch fluorescence ratio turn out when GGGCGACTAG was run?
A: 1.04

Q: For GGGCGATATC, which switch fluorescence ratio is on record?
A: 1.34

Q: For GGGCGATGGA, which switch fluorescence ratio is on record?
A: 1.01

Q: With GGGCGCCAGA as the sequence, how does the switch fluorescence ratio read?
A: 0.996

Q: How did the switch fluorescence ratio turn out when GGGCGCTCGG was run?
A: 0.974

Q: Which switch fluorescence ratio does the source give for GGGCGGCGTC here?
A: 0.999

Q: For GGGCGTATAG, which switch fluorescence ratio is on record?
A: 1.07

Q: For GGGCTAGCCT, which switch fluorescence ratio is on record?
A: 1.04

Q: GGGCTTAATT was tested. Which switch fluorescence ratio did it give?
A: 0.997

Q: Which switch fluorescence ratio does the source give for GGGCTTGGCC here?
A: 1.02

Q: For GGGCTTTCGA, which switch fluorescence ratio is on record?
A: 1.01

Q: GGGGAAAAG was tested. Which switch fluorescence ratio did it give?
A: 1.03

Q: With GGGGAAACG as the sequence, how does the switch fluorescence ratio read?
A: 1

Q: Which switch fluorescence ratio does the source give for GGGGACCGAG here?
A: 1.05

Q: With GGGGACCTCG as the sequence, how does the switch fluorescence ratio read?
A: 0.984

Q: GGGGACCTGT was tested. Which switch fluorescence ratio did it give?
A: 0.945

Q: GGGGAGCCAA was tested. Which switch fluorescence ratio did it give?
A: 0.981

Q: With GGGGAGCGCT as the sequence, how does the switch fluorescence ratio read?
A: 1.05

Q: With GGGGAGTTGT as the sequence, how does the switch fluorescence ratio read?
A: 0.98

Q: For GGGGATTCGG, which switch fluorescence ratio is on record?
A: 1.06

Q: How did the switch fluorescence ratio turn out when GGGGCAACTA was run?
A: 0.979

Q: With GGGGCACCA as the sequence, how does the switch fluorescence ratio read?
A: 1.06

Q: How did the switch fluorescence ratio turn out when GGGGCAGAGC was run?
A: 0.999

Q: Which switch fluorescence ratio does the source give for GGGGCAGCCC here?
A: 1.01

Q: For GGGGCATATG, which switch fluorescence ratio is on record?
A: 1.01

Q: GGGGCATCAT was tested. Which switch fluorescence ratio did it give?
A: 0.999

Q: With GGGGCCACTA as the sequence, how does the switch fluorescence ratio read?
A: 0.963

Q: GGGGCCGGAA was tested. Which switch fluorescence ratio did it give?
A: 0.998
